Experimental data: PubChem BioAssay AID624417 (National Center for Advancing Translational Sciences (NCATS), 2012)
The whole screen tested about 410,000 compounds, of which about 6,400 (1.6%) were called active. The inconclusive results got no clear call from the source; some entries with a clear call stand among them for comparison. Calls follow the shape of the dose curve; as a rule, active = well fitted inhibition curve with a large enough effect; inconclusive = small, poorly fitted or top-dose-only effect; inactive = no such curve, though single readings can be large or run the other way. Potencies of inconclusive entries are left out as doubtful fits.

target: Glucagon-like peptide 1 receptor (Homo sapiens) (UniProt P43220); experiment: qHTS of GLP-1 Receptor Inverse Agonists (Inhibition Mode); conditions: HEK293 GLP-1R CRE-luciferase, luminescence, 24 h, GLP-1R form is constitutively active; activity change, negative = inhibition: at 38.3 µM (top of the series) unless noted; also: nearly all actives have a fitted effect of over 55% in size
UniProt P43220, sequence (P43220 whole entry, looked up): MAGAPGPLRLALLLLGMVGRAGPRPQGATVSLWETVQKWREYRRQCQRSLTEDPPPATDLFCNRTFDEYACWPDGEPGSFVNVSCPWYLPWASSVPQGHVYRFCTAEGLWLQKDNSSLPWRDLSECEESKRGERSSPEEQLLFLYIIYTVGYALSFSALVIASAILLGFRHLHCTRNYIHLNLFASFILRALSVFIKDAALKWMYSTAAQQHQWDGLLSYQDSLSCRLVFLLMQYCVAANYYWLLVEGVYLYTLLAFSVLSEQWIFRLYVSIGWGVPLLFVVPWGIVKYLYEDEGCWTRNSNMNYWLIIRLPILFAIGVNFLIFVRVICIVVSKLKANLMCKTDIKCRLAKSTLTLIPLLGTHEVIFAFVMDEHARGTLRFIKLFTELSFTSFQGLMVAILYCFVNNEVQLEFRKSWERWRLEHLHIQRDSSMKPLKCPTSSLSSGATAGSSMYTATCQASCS
How it was run: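 Constitutively active GLP-1R drives a cAMP-responsive luciferase in stably transfected HEK293 cells; test compounds are added after overnight (12 h) attachment and left 24 hr, and signal loss in luminescence marks inhibition.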
% is scaled to controls: 0 for no effect and ±100 for the full control effect; potency is read from the fitted curve at half-maximal effect; tags tell the direction and shape of the fitted curve.

| SMILES | Potency | activity change, negative = inhibition |
| --- | --- | --- |
| CCCCS(=O)(=O)c1oc(-c2ccc(F)cc2)nc1S(=O)(=O)c1ccccc1 | inconclusive [inhibitor, single point] |  |
| CCN(Cc1cnn(C)c1)Cc1nc(C2(c3ccc(C)cc3)CCCC2)no1 | inconclusive [inhibitor, single point] |  |
| COc1cccc(CNC(=O)CSC2=Nc3ccccc3C3=NC(C)C(=O)N23)c1OC (stereo unspecified) |  | inactive: 14.1% |
| COc1ccc(-c2noc(N3CCN(c4ccc(C)cc4)C(C)C3)n2)cc1OC (stereo unspecified) |  | inactive: 0.741% |
| Cc1ccc(CSc2ncc(Cl)c(C(=O)Oc3ccc(F)cc3)n2)cc1 |  | inactive: 0.168% |
| Cc1cccc(NC(=O)CN2C(=O)NC3(CCCCCCC3)C2=O)c1C | inconclusive [inhibitor, single point] |  |
| CN(Cc1cccnc1)C(=O)Cc1ccc(NS(=O)(=O)c2cccc(C(F)(F)F)c2)cc1 | inconclusive [inhibitor, partial curve, poor fit] |  |
| O=C(CN1C(=O)NC2(CCCCCCC2)C1=O)Nc1ccc(Cl)cc1 | inconclusive [inhibitor, partial curve, poor fit] |  |
| CCOC(=O)c1c(NC(=O)C(C)Sc2cn(CCNC(=O)c3ccccc3OC)c3ccccc23)sc2c1CCC2 (stereo unspecified) | inconclusive [inhibitor, partial curve] |  |
| Cc1ccc(CNC(=O)c2ccc(N3CCC4(CC3)CC(c3ccccc3)=NO4)c([N+](=O)[O-])c2)cc1 |  | inactive: -30.6% |
| Cc1nn2c3ccccc3n(CCN3CCCCC3)c2nc1=O |  | inactive: 12.5% |
| C=CCC(CC=C)(NC(=O)c1ccccc1C)c1ccccc1 | inconclusive [inhibitor, partial curve, poor fit] |  |
| O=c1cc(-c2ccccc2)[nH]n1-c1ccc([N+](=O)[O-])cc1 | inconclusive [inhibitor, single point] |  |
| Cc1c(C)n(C)c2ccc(C(=O)NCCc3ccc(Cl)cc3)cc12 | inconclusive [inhibitor, partial curve, poor fit] |  |
| O=C(NCCc1ccc(Cl)cc1)c1ccc2c(c1)N(Cc1c(F)cccc1Cl)C(=O)CS2 |  | inactive: -28.7% |
| c1ccc(-c2nnc(CN3CCN(C(c4ccccc4)c4ccccc4)CC3)o2)cc1 | inconclusive [inhibitor, partial curve, poor fit] |  |
| Cc1ccc(/C=C/C(=O)O)cc1S(=O)(=O)NCc1ccco1 |  | inactive: 0.0517% |
| CCC(NS(=O)(=O)c1ccc(C)cc1)C(=O)N1CCC2(O)CCCCC2C1 (stereo unspecified) |  | inactive: 7.35% |
| C=CCC1CCCCC1=C(C#N)c1ccccc1 (stereo unspecified) | inconclusive [inhibitor, single point] |  |
| Cc1onc(-c2c(Cl)cccc2Cl)c1C(=O)N=C(N)N1CC(C)OC(C)C1 (stereo unspecified) | inconclusive [inhibitor, partial curve, poor fit] |  |
| Fc1ccc(COc2ccc(Br)cc2CNCC2CCCO2)cc1 (stereo unspecified) | inconclusive [inhibitor, partial curve, poor fit] |  |

| SMILES | Potency | activity change, negative = inhibition |
| --- | --- | --- |
| CCCNC(=O)/C(=C/c1cn(S(=O)(=O)N(C)C)c2ccccc12)NC(=O)c1ccc(OC)cc1 | inconclusive [inhibitor, single point] |  |
| COc1cc(Cl)c(NC2=CC(=O)C(=O)c3ccccc32)c(OC)c1 |  | inactive: -10.4% |
| CCOc1ccc2nc(NC(=O)CS(=O)(=O)c3ccc(C)cc3)sc2c1 |  | inactive: -0.718% |
| Cc1ccc(CNC(=S)Nc2cc(C)ccc2OC(F)F)cc1 | inconclusive [inhibitor, partial curve, poor fit] |  |
| Cc1ccc(NC(=O)c2cc(S(=O)(=O)N(C)C)ccc2N2CCCC2)cc1F | inconclusive [inhibitor, partial curve, poor fit] |  |
| COc1ccc(Cn2nnnc2C(c2ccc(C)cc2)N2CCN(C3CCCC3)CC2)cc1 (stereo unspecified) | inconclusive [inhibitor, partial curve, poor fit] |  |
| CCC(C)(C)C1CCC2(CC1)NC(=O)N(CC(=O)N(C)Cc1ccc3c(c1)OCCO3)C2=O (stereo unspecified) | inconclusive [inhibitor, full curve, poor fit] |  |
| COC(=O)c1ccc(-c2noc(CN(Cc3ccccn3)CC3CCCO3)n2)cc1 (stereo unspecified) | inconclusive [inhibitor, single point] |  |
| O=C(c1ccc2c3c(cccc13)CC2)C1CCCN(Cc2ccccn2)C1 (stereo unspecified) | inconclusive [inhibitor, single point] |  |
| COc1ccc(CCNC/C=C/c2ccccc2)cc1 |  | inactive: -22.1% |
| COc1ccc(-c2nc(CS(=O)(=O)CC(=O)NCCCc3ccccc3)c(C)o2)cc1 |  | inactive: -9.03% |
| Cc1ccc(C(c2c(C)nn(-c3ccccc3)c2N)c2c(C)nn(-c3ccccc3)c2N)cc1 | inconclusive [inhibitor, partial curve, poor fit] |  |
| CCSc1nnc2c(n1)OC(c1sccc1C)N(C(C)=O)c1ccccc1-2 (stereo unspecified) |  | inactive: -24.6% |
| Cc1ccc(N2CC(C(=O)N3CCC(C(=O)Nc4cccc(Br)c4)CC3)CC2=O)cc1 (stereo unspecified) | inconclusive [inhibitor, partial curve, poor fit] |  |
| O=C(CN1C(=O)CCc2cc(S(=O)(=O)N3CCOCC3)ccc21)NCc1ccccc1Cl |  | inactive: 3.09% |
| CCCOc1ccc(NC(=O)CC2C(=O)N(c3ccc(C)cc3)C(=O)N2C2CCCC2)cc1 (stereo unspecified) | inconclusive [inhibitor, partial curve, poor fit] |  |
| O=C(C(=O)N1CCN(c2cccc(Cl)c2)CC1)c1cn(CC(=O)N2CCOCC2)c2ccccc12 | inconclusive [inhibitor, single point] |  |
| C/C(CC(=O)Nc1cccc(Cl)c1C)=N\NC(=O)C(=O)NCC(C)C | inconclusive [inhibitor, single point] |  |
| CC1CC(C)CN(S(=O)(=O)c2cccc(C(=O)N3CCN(c4ccc(F)cc4)CC3)c2)C1 (stereo unspecified) | inconclusive [inhibitor, single point] |  |
| CC(NC(=O)C(=O)c1cn(CC(=O)N2CCOCC2)c2ccccc12)c1ccccc1 (stereo unspecified) | inconclusive [inhibitor, partial curve] |  |
